# Data from paper PMC4336329 (PLoS ONE, 2015).
# The campaign covered roughly 310,000 compounds. About 14,000 (4.5%) showed an effect of 50% or more. The effect is printed as a negative number. This is one part of the list.
# Target: human ether-à-go-go-related gene (hERG) potassium channel (human, UniProt Q12809)
# Experiment: primary screen, population patch clamp on CHO cells stably expressing hERG
# 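Note: peak tail current of the secondary pulse compared with the same well before compound.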
# human ether-à-go-go-related gene (hERG) potassium channel, sequence (Q12809 whole entry, looked up): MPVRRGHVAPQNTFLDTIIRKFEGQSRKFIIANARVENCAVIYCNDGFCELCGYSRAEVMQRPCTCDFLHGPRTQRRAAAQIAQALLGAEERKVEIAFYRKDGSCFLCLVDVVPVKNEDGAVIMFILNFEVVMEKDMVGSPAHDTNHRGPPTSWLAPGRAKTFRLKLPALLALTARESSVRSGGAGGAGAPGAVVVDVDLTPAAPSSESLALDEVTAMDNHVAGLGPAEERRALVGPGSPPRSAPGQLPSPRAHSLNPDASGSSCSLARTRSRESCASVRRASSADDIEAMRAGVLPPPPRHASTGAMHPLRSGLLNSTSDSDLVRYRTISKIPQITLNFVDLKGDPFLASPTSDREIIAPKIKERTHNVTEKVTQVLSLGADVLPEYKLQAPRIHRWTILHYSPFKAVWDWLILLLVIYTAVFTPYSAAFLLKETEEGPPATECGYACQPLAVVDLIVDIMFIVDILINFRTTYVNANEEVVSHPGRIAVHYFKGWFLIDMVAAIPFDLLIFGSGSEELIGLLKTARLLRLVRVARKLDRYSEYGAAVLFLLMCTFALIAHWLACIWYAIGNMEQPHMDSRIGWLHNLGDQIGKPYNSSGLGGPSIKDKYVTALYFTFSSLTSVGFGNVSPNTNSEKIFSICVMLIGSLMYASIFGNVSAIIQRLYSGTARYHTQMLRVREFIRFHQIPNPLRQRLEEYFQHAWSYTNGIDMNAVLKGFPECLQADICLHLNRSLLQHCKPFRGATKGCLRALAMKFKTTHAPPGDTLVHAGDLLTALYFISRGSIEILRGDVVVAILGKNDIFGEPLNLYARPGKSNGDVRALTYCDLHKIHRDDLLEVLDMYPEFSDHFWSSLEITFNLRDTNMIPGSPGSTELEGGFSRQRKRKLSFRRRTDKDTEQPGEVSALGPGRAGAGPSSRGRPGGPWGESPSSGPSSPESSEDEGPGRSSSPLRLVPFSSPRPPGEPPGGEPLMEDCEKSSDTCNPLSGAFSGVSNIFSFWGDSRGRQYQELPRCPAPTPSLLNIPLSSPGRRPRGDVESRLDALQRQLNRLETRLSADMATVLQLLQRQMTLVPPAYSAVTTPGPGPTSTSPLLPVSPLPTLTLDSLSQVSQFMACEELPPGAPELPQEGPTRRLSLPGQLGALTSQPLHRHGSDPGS
row,SMILES,"hERG current change (%, negative = inhibition) at 10uM [%]"
1,O=c1c2cn[nH]c2[nH]c(=S)n1-c1ccccc1F,24.8
2,Cc1ccc(S(=O)(=O)N2CCN(C(=O)COC(=O)COc3ccccc3)CC2)cc1,43.8
3,CSc1ccccc1OCc1cc(C(=O)NC(C)Cn2cncn2)no1 (stereo not shown),-2.35
4,CSCC[C@H](NC(=O)OC(C)(C)C)c1nnc(SCc2ccccc2)o1,-51.3
5,CCc1ccc(-n2cc(-c3ccc(F)cc3)[n+]3c2SCCC3)cc1.[Br-],-71.7
6,CC(C)CNS(=O)(=O)c1cc2c3c(c1)CC(=O)N3CCC2,11.6
7,O=c1cc(CO)occ1OCc1cccc(F)c1,-9.93
8,Cc1ccc2occ(CN3CCN(c4ccccc4)CC3)c(=O)c2c1,-34
9,COC(=O)c1ccc(-n2nnnc2SCC(=O)Nc2ccccc2OC)cc1,8.07
10,COc1cc(CNCc2cccs2)ccc1OCc1ccccc1.Cl,-31.8
11,Cc1cc(C)c2c(c1)cc(C)c1nnc(SCC(=O)Nc3cc(C)on3)n12,-1.35
12,COc1ccc(C(=O)NCCS(=O)(=O)N2CCCC2)cc1,-9.31
13,CC(C)OC(=O)c1ccc(NC(=O)C2C3CC4OC(=O)C2C4C3)cc1 (stereo not shown),8.54
14,CCCCn1c(SCC(=O)N2CCCC2)nnc1-c1ccccc1,5.34
15,c1ccc2c(CN3CCSCC3)cccc2c1,11.1
16,CC(NC(=O)CCOc1ccccc1)c1ccccc1 (stereo not shown),7.44
17,CC1CCN(Cc2nc(Cl)c3c4c(sc3n2)CCC4)CC1,-0.304
18,CCCCC(CCC(=O)Nc1cc([N+](=O)[O-])ccc1O)C(=O)O (stereo not shown),14
19,CC(C)COc1cccc(-c2cc(C(=O)Nc3ccon3)c3ccccc3n2)c1,23.6
20,CC(C)N1C(=S)SC2CS(=O)(=O)C=C21 (stereo not shown),-5.07

row,SMILES,"hERG current change (%, negative = inhibition) at 10uM [%]"
1,Cc1cccc(N2C(=O)c3cccc4cccc(c34)C2=O)c1,20.4
2,CCc1ccccc1NC(=O)CN(c1cccc(OC)c1)S(C)(=O)=O,11.5
3,Cc1onc(C(=O)N2CCN(C(c3ccccc3)c3ccccc3)CC2)c1[N+](=O)[O-],-3.07
4,S=C(NCc1cccnc1)Nc1cccc2ccccc12,-9.3
5,CC(=O)N(CCC1(c2ccc(C)cc2)CCOC(C(C)C)C1)Cc1ccco1 (stereo not shown),-5.3
6,O=c1cc(O)n(-c2ccc(F)cc2)c(=S)[nH]1,11.3
7,O=C(Cc1ccccc1)N/N=C/c1ccc([N+](=O)[O-])s1,2.97
8,S=C(NCCc1ccccn1)Nc1cccc(Cl)c1,7.55
9,COc1ccc(OCC(=O)Nc2ccc(OC)c(S(=O)(=O)N3CCCCC3)c2)cc1,-18.6
10,O=C(Nc1nc2cc3c(cc2s1)OCO3)C1=COCCO1,0.541
11,NC(=O)c1ccc(C(=O)Nc2ccc([As](=O)(O)O)cc2)cc1,24.4
12,CCOc1cc(N2CCOCC2)c(OCC)cc1NC(=O)CSc1n[nH]c(N)n1,38.2
13,Cc1ccc(-n2c(=O)cc(N3CCN(C(=O)c4ccco4)CC3)[nH]c2=O)cc1,6.92
14,CO/N=C/NC(=O)c1c(OC)ccnc1Oc1ccccc1,1.7
15,Cl.O=C(O)C(c1ccccc1)N1CCCC1 (stereo not shown),8.93
16,O=C(NCC1CCCO1)c1nn2c(C(F)(F)F)cc(-c3ccco3)nc2c1Cl (stereo not shown),1.16
17,Cc1ccc(C(=O)NC2CCCC2)cc1S(=O)(=O)N1CCCCC1,-11.7
18,O=C1NC[C@@H](Cc2ccc(O)cc2)N(CCc2cccc3ccccc23)C1=O,0.501
19,COC(CNc1nc(SC)nc2sc3c(c12)CCN(C)C3)OC,-52.5
20,O=C(Nc1ccc(S(=O)(=O)Nc2nccs2)cc1)c1ccc(S(=O)(=O)N2CCOCC2)cc1,15

row,SMILES,"hERG current change (%, negative = inhibition) at 10uM [%]"
1,Cn1c(=O)c([N+](=O)[O-])c(N2CCSCC2)c2ccccc21,-5.97
2,CCOC(=O)N1CCN(C(=O)c2cc(OCC)c(OCC)c(OCC)c2)CC1,-3.23
3,CCc1cc2c(COC(=O)CCNS(=O)(=O)c3cccc(C(F)(F)F)c3)cc(=O)oc2cc1O,-13.3
4,O=C(Nc1ccccc1N1CCN(c2ccccc2)CC1)c1cccc(F)c1,-8.05
5,CCN(CCCNC(=O)CNC(=O)Cn1cnc2ccccc2c1=O)c1ccccc1,2.96
6,CC(C)NC(=O)COC(=O)c1cc(Br)ccc1Cl,8.58
7,COCc1cc(C)nc(N/N=C/c2ccc(-c3cc(C(=O)O)ccc3Cl)o2)c1C#N,24.5
8,COCCNC(=O)C1CCC(=O)N1S(=O)(=O)c1ccc(C)cc1 (stereo not shown),17.6
9,Cn1c(-c2ccsc2)c(-c2cccs2)c2cc(-c3ccc4cc[nH]c4c3)ccc21,12.1
10,COc1ccccc1OCc1nc2ccccc2[nH]1,-1.03
11,CCc1nnc(NS(=O)(=O)c2ccc(N/C=C/C(=O)c3ccc(C)cc3)cc2)s1,13.5
12,CCc1ccc(OCCCC(=O)O)c(Br)c1,-0.471
13,O=S(=O)(c1ccc(C2CCCCC2)cc1)N1CCN(c2ncccn2)CC1,-1.38
14,CCC1(c2ccccc2)NC(=O)N(CC(=O)NCCN2C(=O)S/C(=C\c3cccnc3)C2=O)C1=O (stereo not shown),6.2
15,COC(=O)c1ccc2c(c1)C(C)(C)C(/C=C/c1ccc(OC)c(OC)c1OC)=[N+]2C.[I-],-2.88
16,C1CCc2nnc(-c3nnc4n3CCCCC4)n2CC1,4.11
17,Nc1nc(N)c2[nH]cnc2n1,-0.93
18,Clc1cccc(Oc2cnc3ccccc3n2)c1,-25.8
